{"source": "PubChem BioAssay AID488969", "about": "(Vanderbilt High Throughput Screening Facility, 2010)", "note": "In all, about 110,000 compounds were measured (“z-score”: median about -0.1, highest 2% from about 2 on). The list shows a part of the results. Calls of active or inactive are those of the source.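 Rule for the calls: active = z-score in the third read window above 3 or below -3; inactive = the rest.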"}
{"biological_target": "Metabotropic glutamate receptor 8 (Rattus norvegicus) (UniProt P70579)", "sequence (P70579 whole entry, looked up)": "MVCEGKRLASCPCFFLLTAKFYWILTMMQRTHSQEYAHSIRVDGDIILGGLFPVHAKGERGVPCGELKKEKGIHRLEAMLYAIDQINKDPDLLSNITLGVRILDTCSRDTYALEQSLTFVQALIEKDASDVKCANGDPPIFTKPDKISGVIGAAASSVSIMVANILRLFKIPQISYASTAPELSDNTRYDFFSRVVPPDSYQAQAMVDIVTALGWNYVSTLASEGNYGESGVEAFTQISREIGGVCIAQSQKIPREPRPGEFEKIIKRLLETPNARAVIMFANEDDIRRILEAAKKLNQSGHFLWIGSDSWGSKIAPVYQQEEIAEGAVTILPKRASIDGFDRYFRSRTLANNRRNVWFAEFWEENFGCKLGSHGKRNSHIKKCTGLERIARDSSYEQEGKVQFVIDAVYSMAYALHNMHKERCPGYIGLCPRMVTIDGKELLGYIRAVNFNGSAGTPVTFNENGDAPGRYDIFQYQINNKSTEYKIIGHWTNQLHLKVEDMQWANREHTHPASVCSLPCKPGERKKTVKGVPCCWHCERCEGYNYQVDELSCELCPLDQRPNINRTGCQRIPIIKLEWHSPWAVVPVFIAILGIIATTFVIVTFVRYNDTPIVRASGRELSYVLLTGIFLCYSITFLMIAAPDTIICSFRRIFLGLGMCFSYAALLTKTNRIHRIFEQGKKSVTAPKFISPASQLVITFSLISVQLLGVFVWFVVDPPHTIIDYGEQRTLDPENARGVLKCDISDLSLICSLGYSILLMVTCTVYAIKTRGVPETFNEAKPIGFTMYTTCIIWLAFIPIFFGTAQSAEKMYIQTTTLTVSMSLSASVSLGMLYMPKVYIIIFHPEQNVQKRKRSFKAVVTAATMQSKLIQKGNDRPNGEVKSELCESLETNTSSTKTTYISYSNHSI", "assay": "rat mGluR8 modulators via GIRK flux, primary screen, cell-based, thallium flux, HTS (AID 488969)", "settings": "HEK293 rat mGluR8, GIRK (G protein-gated inwardly rectifying potassium channel) thallium flux, FluoZin2; at 10 µM; stronger effect = higher value; submaximal glutamate (EC20) added with thallium"}
{"smiles": "CCOc1ccccc1N1CCN(C(=O)c2ccccc2)CC1", "z-score": -1.51}
{"smiles": "O=C(C1CCCO1)N1CCN(C(=S)Nc2ccc(F)cc2)CC1", "note": "(configuration not stated)", "z-score": 0.0278}
{"smiles": "O=C(NNC(=O)C1CC2CCC1C2)c1ccccc1", "note": "(configuration not stated)", "z-score": -0.631}
{"smiles": "COc1cccc(C(=O)Nc2ncc3c(n2)CC(C)CC3=O)c1", "note": "(configuration not stated)", "z-score": -0.14}
{"smiles": "CCC(C)(C)NC(=O)CN(C(=O)CNS(=O)(=O)c1ccc(C)cc1)c1ccc2c(c1)OCCO2", "z-score": -0.235}
{"smiles": "CCc1cccc(NC(=O)NC2CCCCC2)c1", "z-score": "active: 4.38"}
{"smiles": "O=C(NCC1CCCO1)c1ccc2c(=O)n(Cc3ccco3)c(SCC(=O)N3CCCC3)nc2c1", "note": "(configuration not stated)", "z-score": -0.423}
{"smiles": "COc1ccc(/C(O)=C/Sc2nnc(Cc3ccccc3)o2)cc1", "z-score": 0.181}
{"smiles": "CCc1nnc(NS(=O)(=O)c2ccc(N=Cc3c(C)[nH]n(-c4ccc(C)c(C)c4)c3=O)cc2)s1", "z-score": -0.299}
{"smiles": "O=C(Nc1ccc2snnc2c1)N1CCN(c2ccccc2)CC1", "z-score": -0.66}
{"smiles": "Cc1cccc(OCC(=O)OCC(=O)c2c(N)n(C)c(=O)n(C)c2=O)c1C", "z-score": -0.0585}
{"smiles": "CCCCN=C1C([N+](=O)[O-])=CC=C2C1=NC1(CCCCC1)N2O", "z-score": -0.972}
{"smiles": "Cc1ccc(NC(=O)C(C)Sc2nnc(-c3cccnc3)n2-c2ccccc2)cc1", "note": "(configuration not stated)", "z-score": 0.084}
{"smiles": "Cc1cccc(N2CCN(C(=O)c3ccccc3NC(=O)C3CCCCC3C(=O)O)CC2)c1", "note": "(configuration not stated)", "z-score": 0.304}
{"smiles": "CCC(=O)Nc1ccccc1C(=O)N1CCN(Cc2ccccc2)CC1", "z-score": 0.946}
{"smiles": "CC(=O)c1ccc(-n2c(-c3cc(-c4ccco4)[nH]n3)n[nH]c2=S)cc1", "z-score": -0.412}
{"smiles": "CC1CCCCN1CCNC(=O)CN1C(=O)COc2ccccc21", "note": "(configuration not stated)", "z-score": -0.467}
{"smiles": "CCn1cc(C(=O)NCCCN2CC(C)CC(C)C2)c(=O)c2cc(S(=O)(=O)N(C)C)ccc21", "note": "(configuration not stated)", "z-score": -0.0824}
{"smiles": "COc1cc(C=Nc2c(C)cc(C)cc2C)ccc1OC(C)=O", "z-score": 0.595}
{"smiles": "CCN(CC)S(=O)(=O)c1ccc2c(c1)nc(SCC(=O)N1CCOCC1)n2-c1ccccc1OC", "z-score": -0.239}
{"smiles": "Cc1cc(C)n(CC(=O)n2nc(C)cc2C)n1", "z-score": -0.108}
{"smiles": "Cc1ccc(C)n1CCN1CCN(CC(=O)Nc2cc(C(F)(F)F)ccc2Cl)CC1", "z-score": -0.38}
{"smiles": "CCc1cc2c(cc3c(=O)n(CC(=O)N4CCN(c5ccccn5)CC4)nc(CC)n32)s1", "z-score": -0.884}
{"smiles": "COc1ccc(NC(=O)Cn2nnc(-c3ccccc3N)n2)cc1OC", "z-score": 0.509}
{"smiles": "CC(C)C(=O)Nc1ccccc1C(=O)N/N=C/c1ccc([N+](=O)[O-])cc1", "z-score": -0.163}
{"smiles": "S=c1[nH]nc(COc2ccc3c(c2)OCO3)n1-c1ccccc1", "z-score": 0.774}
{"smiles": "Cc1nnc(-c2cnn(-c3ccccc3)c2N)n1Cc1cccc(C(F)(F)F)c1", "z-score": -0.0926}
{"smiles": "COc1nc(Oc2ccc(=O)n(C)n2)nc(N(C)C)n1", "z-score": -0.215}
{"smiles": "CCCCNC(=O)CCSc1ccc(C)cc1", "z-score": -0.0336}
{"smiles": "Cc1onc(-c2ccccc2)c1C(=O)Nc1nc2c(s1)CCCC2", "z-score": 0.165}
{"smiles": "Cc1ccc(S(=O)(=O)Nc2nc(C)cc(NCCN)n2)cc1", "z-score": 0.381}
{"smiles": "COC(=O)c1ccc(C)c(NC(=O)CCNC(=O)c2ccc([N+](=O)[O-])cc2)c1", "z-score": -0.381}
{"smiles": "NS(=O)(=O)c1ccc(NC(=O)C2CCCN(S(=O)(=O)c3ccc(F)cc3)C2)cc1", "note": "(configuration not stated)", "z-score": 0.0325}
{"smiles": "CSc1ccccc1N1CCN(C(=O)Nc2ccc3c(c2)NC(=O)CO3)CC1", "z-score": -0.216}
{"smiles": "CC(C)(CSc1nncn1N)NS(=O)(=O)c1ccc(Cl)cc1", "z-score": 0.241}
{"smiles": "Cc1nnc(NC(=O)CSc2nc3c(c(=O)n2C)SC(C)C3)s1", "note": "(configuration not stated)", "z-score": 0.192}
{"smiles": "CCN(CC)C(=O)CSc1nnc(-c2ccc(S(=O)(=O)N3CCCC3)cc2)o1", "z-score": -0.113}
{"smiles": "CCOC(=O)C1=NN(c2ccccc2)C2=NC(C)=C(C(=O)OC)C(c3cccs3)N12", "note": "(configuration not stated)", "z-score": -0.379}
{"smiles": "COc1ccc(C(=O)COC(=O)CNC(=O)C2CCCCC2)c(OC)c1", "z-score": -0.0967}
{"smiles": "Cc1nn(-c2cccc(C(F)(F)F)c2)c(Cl)c1/C=N/Nc1cccc(C(=O)O)c1", "z-score": -0.615}
{"smiles": "O=C(CSc1nccn1-c1ncc(C(F)(F)F)cc1Cl)c1ccc(Cl)cc1", "z-score": -0.0872}
{"smiles": "O=C(NC(=S)N1CCc2ccccc21)c1ccccc1Br", "z-score": "active: 11.2"}
{"smiles": "CC(=O)NC(=S)Nc1ccc(NC(=O)c2cccs2)cc1", "z-score": -0.0605}
{"smiles": "CCOC(=O)C(O)(C1C(=O)CC(C)(C)CC1=O)C(F)(F)F", "note": "(configuration not stated)", "z-score": -0.123}
{"smiles": "CC1CC(C)(C)NC(C)c2ccccc21", "note": "(configuration not stated)", "z-score": -0.506}
{"smiles": "Cc1ccc(S(=O)(=O)N2CCOCC2)cc1C(=O)OCC(=O)Nc1ccc2c(c1)OCO2", "z-score": -0.412}
{"smiles": "COC(=O)C1=C(CSc2nncn2C)NC(=O)NC1c1ccc(F)cc1", "note": "(configuration not stated)", "z-score": 0.135}
{"smiles": "CCOc1cc(C2NN=C(c3ccccc3)S2)ccc1OCc1ccccc1Cl", "note": "(configuration not stated)", "z-score": 0.78}
{"smiles": "CCOC(=O)N1CCC(c2cc(=O)n3[nH]c(C)c(-c4ccc(F)cc4)c3n2)CC1", "z-score": -1.32}
{"smiles": "CC(C)CC(=O)N/C(N)=N/c1nc2ccccc2s1", "z-score": -0.563}
{"smiles": "CC1c2[nH]c3ccccc3c2CCN1S(C)(=O)=O", "note": "(configuration not stated)", "z-score": 0.542}
{"smiles": "COc1cccc(-c2cc(C(=O)Nc3cnn(Cc4ccccc4C)c3)no2)c1", "z-score": 0.0739}
{"smiles": "CNS(=O)(=O)c1cccc(C(=O)OCC(=O)N2CCc3ccccc3C2)c1", "z-score": 0.0659}
{"smiles": "CCOC(=O)C(C)Oc1cccc2c(=O)n(CC(=O)Nc3ccc(OCC)cc3)ccc12", "note": "(configuration not stated)", "z-score": -0.623}
{"smiles": "COc1cc(-n2c(=O)c3ccccc3n(Cc3cccnc3)c2=O)cc(OC)c1OC", "z-score": -0.352}
{"smiles": "COCCn1c(-c2ccco2)csc1=Nc1cccnc1", "z-score": -0.463}
{"smiles": "CCN(C(=O)c1cccs1)c1nnc(-c2ccncc2)s1", "z-score": 0.485}
{"smiles": "COc1cccc(-n2c(=O)c3cc(OC)c(OC)cc3n(CC(=O)Nc3cc(C)[nH]n3)c2=O)c1", "z-score": -0.124}
{"smiles": "Cc1ccc(C(NC(=O)N2CCOCC2)=C(Cl)Cl)cc1F", "z-score": -0.011}
{"smiles": "Cc1ccc(C(=O)Cn2nnc3ccccc32)cc1C", "z-score": -0.123}
{"smiles": "CSc1nc2sc3c(c2c(=O)[nH]1)CCCC3", "z-score": -0.148}
{"smiles": "N#C/C(=C(/O)CN1CCCCC1)c1nc(-c2ccc(Cl)cc2)cs1", "z-score": -0.201}
{"smiles": "O=C(NNc1cccc(Cl)n1)c1ccc(Cl)cc1Cl", "z-score": 0.0197}
{"smiles": "c1cn2c(NC3CCCC3)c(-c3ccc(N4CCOCC4)cc3)nc2cn1", "z-score": -0.0312}
{"smiles": "COc1ccc(/C=N/NS(=O)(=O)c2ccc(C)cc2)cc1OC(=O)c1ccc(C)cc1", "z-score": -0.266}
{"smiles": "COc1cc(CO)cc(-c2cc(CO)cc(OC)c2OC)c1OC", "z-score": 0.0452}
{"smiles": "CCOC(=O)c1[nH]c(C)c(/C(O)=C2\\C(=O)C(=O)N(CCN3CCOCC3)C2c2cccs2)c1C", "note": "(configuration not stated)", "z-score": -0.0843}
